Read counts are not given, so values of variants with three or more changes are uncertain.
B1: CPEB3 Ribozyme (parent)
chain: UAACAGGGGGCCACAGCAGAAGCGUUCACGUCGCAGCCCCUGUCAGAUUCUGGUGAAUCUGCGAAUUCUGCUGUAUAUCUC

Variants of: B1
Assay: self-cleavage, relative activity (ratio to wild type); higher = more cleavage; in vitro, sequencing
Procedure, shortened: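 CPEB3 self-cleaving ribozyme mutant libraries were made by rounds of error-prone PCR, barcoded, and transcribed in vitro with T7 RNA polymerase for 5 hours at 37°C. Cleavage occurred during transcription and a 15 min DNase I step before EDTA stop. RNAs were reverse transcribed with template switching and Illumina-sequenced, with DNA sequencing mapping barcodes to variants. Relative activity is the variant's cleaved/total read fraction divided by wild type's (minimum 5 reads), averaged across three batches.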
Variant UAACAGGGGGCCACAGCAGAAGCGGUCCCGUCGCAGCCCCUGUCGGAUUCUGGUGAAUCUGCGAAUUCUGCUGUAUAUCUC [U25G A28C A45G] has a self-cleavage of 0.56. UAACAGGGGGCCACAGCAGAAGCGGUCUGGUCGCAGCCCCUGUCAGAUUCUGGCGAAUCUGCGAAUUCUGCUGUAUAUCUC [U25G A28U C29G U54C] showed a self-cleavage of 0.36. Variant UAACAGGGGGCCACAGCAGAAGCGGUCACGUCGCGGCCCCUGUCUGAUUCUGGUGAAUCUGCGAAUUCUGCAGUAUAUCUC [U25G A35G A45U U72A] has a self-cleavage of 0.22. Work on UAACAGGGGGCCACAGCAGAAGCGGUCACGUCGCGGCCCCAGCCAGAUUCUGGUGAAUCUGCGAAUUCUGCUGUAUAUCUC [U25G A35G U41A U43C] yielded a self-cleavage of 0.06. UAACAGGGGGCCACAGCAGAAGCGGUCACGUCGCUGCCCCUGUCAGAUUCUGGUGAAUCUGCGAGUUCUGCUGUAUAUCUC [U25G A35U A65G] showed a self-cleavage of 0.19. With UAACAGGGGGCCACAGCAGAAGCGGUCACGUCGCUGCCCCUGUCAGAUUCUGGUGAAUCUGCGAAUUCUGCUGUAUAUCGC [U25G A35U U80G] the self-cleavage was 0.11. In the case of UAACAGGGGGCCACAGCAGAAGCGGUCACGUCGCAGCCCCUGUCGGAUUCUGGUGAAUCUGCGAAUUCUGCAGUAUAUCUC [U25G A45G U72A], the self-cleavage is reported as 0.28. UAACAGGGGGCCACAGCAGAAGCGGUCACGUCGCAGCCCCUGUCAGAUUCUGGUGACUCUGCGAAUACUGCUGUAUAUCUC [U25G A57C U67A] gave a self-cleavage of 0.32. For UAACAGGGGGCCACAGCAGAAGCGGUUACGUCGCAACCCCUGUCAGAUUCUGGUGGAUCUGCGAAUUCUGCUGUAUAUCUC [U25G C27U G36A A56G], the self-cleavage was 0.24. UAACAGGGGGCCACAGCAGAAGCGGUCACGUCGCAGCCCUUGUCAGAUUCUGGUGAAUCUGCGAAUUCUGCUGCAUAUCUC [U25G C40U U74C] showed a self-cleavage of 0.35. For UAACAGGGGGCCACAGCAGAAGCGGACACGUCGCAGCCCCUGUCAGAUUCUGGUGAGUCUGCGAAUUCUGCUGUAUAUCUC [U25G U26A A57G], the self-cleavage was 0.1. In the case of UAACAGGGGGCCACAGCAGAAGCGGUCACGUCGCAGCCCCCGUCAGAUCCUGGUGAAUCUGCGAAUUCUGCUGUGUACCUC [U25G U41C U49C A75G U78C], the self-cleavage is reported as 0.09. In the case of UAACAGGGGGCCACAGCAGAAGCGGUCACGUCGCAGCCCCUGACAGACUCUGGUGAAUCUGCGAACUCUGCGGUAUAUCCC [U25G U43A U48C U66C U72G U80C], the self-cleavage is reported as 0.02. UAACAGGGGGCCACAGCAGAAGCGGUCACGUCGCAGCCCCUGUCAGAUUCCGGUGAAUCUGCGAGUUCUGCUGUAUAUCUC [U25G U51C A65G] showed a self-cleavage of 0.18. UAACAGGGGGCCACAGCAGAAGCGGUCACGUCGCAGCCCCUGUCAGAUUCCGGUGAAUCUGCGAUUUCUGCUGUAUAUCUC [U25G U51C A65U] showed a self-cleavage of 0.15. For UAACAGGGGGCCACAGCAGAAGCGGUCACGUCGCAGCCCCUGUCAGAUUCUGGAGAAUCUGCGAAUUCUGCUGUAUAUCAC [U25G U54A U80A], the self-cleavage was 0.44. With UAACAGGGGGCCACAGCAGAAGCGUACGCGUCGCAGCCCCUGUCAGAUUCUGGUGAAUCUGCGGAUCCUGCUGUAUAUCUC [U26A A28G A64G U67C] the self-cleavage was 0.14. With UAACAGGGGGCCACAGCAGAAGCGUACGCGCCGCAGCCCCUGUCAGAUUCUGGCGAAUCUGCGAAUUCUGCUGUAUAUCUC [U26A A28G U31C U54C] the self-cleavage was 0.12. UAACAGGGGGCCACAGCAGAAGCGUACGCGUCGCAGCCCCUGCCAGAUUCUGGUGAAUCUGCGAAUUCUGCUGUUUAUCUC [U26A A28G U43C A75U] gave a self-cleavage of 0.09. With UAACAGGGGGCCACAGCAGAAGCGUACGCGUCGCAGCCCCUGUCAGAUUCUGGCGAAUCUGCGAAUCCUGCUGUAUAUCUC [U26A A28G U54C U67C] the self-cleavage was 0.09. Variant UAACAGGGGGCCACAGCAGAAGCGUACUCGUCGCAGCCCCUGUCAGAUUCUGGUGAAUCUGCGAAUUCUGCUGUAUCUCCC [U26A A28U A77C U80C] has a self-cleavage of 0.47. For UAACAGGGGGCCACAGCAGAAGCGUACUCGUCGCAGCCCUUGUCAGAUUCUAGUGAGUCUGCGAAUUCUGCUGUAUAUCUC [U26A A28U C40U G52A A57G], the self-cleavage was 0.12. With UAACAGGGGGCCACAGCAGAAGCGUACUCGUCGCAGCCCCUGUCAGAUUCUGGUGAAUCUGCGAACUCUGCUGUAUGUCUC [U26A A28U U66C A77G] the self-cleavage was 0.11. With UAACAGGGGGCCACAGCAGAAGCGUACUCGUCGCAGCCCCUGUCAGAUUCUGGUGAAUCUGCGAAUUCUGCUGUAUACCUC [U26A A28U U78C] the self-cleavage was 0.43. UAACAGGGGGCCACAGCAGAAGCGUACACGUCGCGGCCCCCGUCAGAUCCUGGUGAAUCUGCGAACUCUGCUGUAUAUCCC [U26A A35G U41C U49C U66C U80C] gave a self-cleavage of 0.24. Work on UAACAGGGGGCCACAGCAGAAGCGUACACGUCGCGGCCCCUGUCAGAUUCUGGUGAAUCUGCGAAUUCUGCUGUAUACCUC [U26A A35G U78C] yielded a self-cleavage of 1.31. UAACAGGGGGCCACAGCAGAAGCGUACACGUCGCUGCUCCUGUCAGAUUCUGGUGAAUCUGCGAAUUCUGCUGUUUAUCUC [U26A A35U C38U A75U] showed a self-cleavage of 0.2. For UAACAGGGGGCCACAGCAGAAGCGUACACGUCGCUGCCCCCGUCAGAUUCUGGUGAAUCUGCGAAUUCUGCUUUAUAUCCC [U26A A35U U41C G73U U80C], the self-cleavage was 0.6. With UAACAGGGGGCCACAGCAGAAGCGUACACGUCGCAGCCCCUGUCCGAUUCUGGUGAACCUGCGAAUUCUGCUGUAUAUCUC [U26A A45C U58C] the self-cleavage was 0.05. For UAACAGGGGGCCACAGCAGAAGCGUACACGUCGCAGCCCCUGUCCGAUUCUGGUGAAUCUGCGAAUUCUGCUGUACACCUC [U26A A45C U76C U78C], the self-cleavage was 0.09. Variant UAACAGGGGGCCACAGCAGAAGCGUACACGUCGCAGCCCCUGUCGGAUUCUGGUGAGUCUGCGAAUUCUGCUGUAUAUCUC [U26A A45G A57G] has a self-cleavage of 0.46. UAACAGGGGGCCACAGCAGAAGCGUACACGUCGCAGCCCCUGUCUGAUUCUGGUGAAUCCGCGAAUUCUGCUGUAUAUCUC [U26A A45U U60C] gave a self-cleavage of 0.26. Work on UAACAGGGGGCCACAGCAGAAGCGUACACGUCGCAGCCCCUGUCAGGUUCUGGUGAAUCUGCGAGUUCUGCUGUAUAUCUC [U26A A47G A65G] yielded a self-cleavage of 0.51. UAACAGGGGGCCACAGCAGAAGCGUACACGUCGCAGCCCCUGUCAGGCUCUGGUGAAUCCGCGAAUUCAGCUGUAUACCUC [U26A A47G U48C U60C U69A U78C] gave a self-cleavage of 0.06.

Reference: the RNAGym collection of RNA variant scans (doi:10.1093/nar/gkz1192)
